Results: PMC8384840, “The chaperone HSPB1 prepares protein aggregates for resolubilization by HSP70” (Scientific Reports, 2021)

Molecular target: the molecule itself
Assay: SEC; 20 µM HSPB1 or mutant alone, native; Superose 12 10/300 GL, reaction buffer (100 mM KOAc, 20 mM HEPES-KOH pH 7.5, 5 mM MgOAc2), 4 °C, absorbance at 280 nm

B1: HSPB1-3D-GxG (natural protein)
chain: not shown
notes: human HSPB1 with S15D, S78D, S82D and the IXI/V motif 181-IPV-183 mutated to GxG (I181G, V183G); in pPROEX HTa; Dimer by SEC; His tag removed with TEV protease; also called HSPB1-3D-GxG (I181G/V183G)
Which “stoichiometry N” value does the source give for B1 here?
Its value is 2.
